From PMC4336329 (PLoS ONE, 2015) come the findings set out here.

Out of some 310,000 compounds screened, about 2,200 (0.71%) showed an effect of 50% or more. The effect is printed as a negative number. This is one part of the list.

For this experiment, the target named is human ether-à-go-go-related gene (hERG) potassium channel (human, UniProt Q12809). Description: primary screen, population patch clamp on CHO cells stably expressing hERG.
human ether-à-go-go-related gene (hERG) potassium channel, sequence (Q12809 whole entry, looked up): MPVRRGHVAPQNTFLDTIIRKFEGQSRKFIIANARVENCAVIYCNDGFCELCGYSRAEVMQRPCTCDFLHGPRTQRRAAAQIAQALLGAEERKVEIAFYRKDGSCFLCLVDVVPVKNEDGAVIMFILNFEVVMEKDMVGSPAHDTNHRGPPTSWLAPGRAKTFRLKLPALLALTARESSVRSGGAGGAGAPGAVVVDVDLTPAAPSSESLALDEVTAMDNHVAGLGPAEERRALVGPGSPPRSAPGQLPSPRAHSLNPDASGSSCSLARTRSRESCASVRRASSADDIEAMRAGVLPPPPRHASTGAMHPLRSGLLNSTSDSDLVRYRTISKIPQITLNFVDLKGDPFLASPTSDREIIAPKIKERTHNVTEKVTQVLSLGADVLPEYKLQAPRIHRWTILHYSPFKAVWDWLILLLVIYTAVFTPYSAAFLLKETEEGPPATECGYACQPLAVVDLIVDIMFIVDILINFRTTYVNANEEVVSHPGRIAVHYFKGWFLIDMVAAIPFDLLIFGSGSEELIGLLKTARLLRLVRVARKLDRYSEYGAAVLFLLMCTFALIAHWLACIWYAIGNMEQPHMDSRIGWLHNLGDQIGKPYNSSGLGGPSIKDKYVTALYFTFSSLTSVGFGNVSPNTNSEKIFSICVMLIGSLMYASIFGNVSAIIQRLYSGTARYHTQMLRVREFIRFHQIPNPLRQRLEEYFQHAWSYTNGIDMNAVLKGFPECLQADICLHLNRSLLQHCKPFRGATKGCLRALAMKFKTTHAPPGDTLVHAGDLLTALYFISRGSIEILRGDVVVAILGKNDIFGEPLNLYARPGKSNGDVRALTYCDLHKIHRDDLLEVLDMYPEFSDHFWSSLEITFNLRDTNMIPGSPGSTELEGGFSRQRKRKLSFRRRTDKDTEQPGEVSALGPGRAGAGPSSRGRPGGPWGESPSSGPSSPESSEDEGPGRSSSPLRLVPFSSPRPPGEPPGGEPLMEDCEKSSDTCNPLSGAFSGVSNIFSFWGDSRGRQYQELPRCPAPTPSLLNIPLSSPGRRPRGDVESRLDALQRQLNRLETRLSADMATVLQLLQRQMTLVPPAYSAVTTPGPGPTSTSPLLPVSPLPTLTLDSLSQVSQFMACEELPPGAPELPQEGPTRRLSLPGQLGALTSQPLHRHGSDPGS
Regarding `COc1cccc(NC(=O)c2ccco2)c1`, the “hERG current change (%, negative = inhibition) at 1uM” value amounted to 6.98%.
To `COc1cccc(C2=CC(=O)C[C@H](c3ccc(Cl)cc3)C2)c1OC` belongs 16.2%; to `COc1ccc(O)c(C(=O)c2cnn(C(=O)c3cccc(S(=O)(=O)N4CCOCC4)c3)c2)c1`, 3%; to `CCN(CC)C(=O)c1cncc(C(=O)N(CC)CC)c1-c1ccccc1`, 4.67%.
Turning to `CSCc1ccc(C(=O)NC2CC(C)(C)Cc3c2cnn3-c2ccc(F)cc2)o1` (centres unmarked), the “hERG current change (%, negative = inhibition) at 1uM” value amounted to 9.02%.
In the case of `O=C1C(=O)N(Cc2cccnc2)C(c2ccccn2)/C1=C(/O)c1ccc(F)cc1` (centres unmarked), the “hERG current change (%, negative = inhibition) at 1uM” value stood at 4.9%.
The same measure for `CCn1c(=O)c2ccccc2n2c(SCC(=O)N3CCc4ccccc4C3)nnc12`: -3.75%; for `Cc1csc(NC(=O)CSC2=NS(=O)(=O)c3cc(F)ccc3N2)n1`: 16.1%.
Consider `Cc1[nH]c2ccccc2c1/C=N/NC(N)=S`, for which the “hERG current change (%, negative = inhibition) at 1uM” value came out at 11.4%.
In the case of `Cc1ccc(OC2CCN(C(=O)C3CCC(=O)N(C4CC4)C3)CC2)cc1` (centres unmarked), the “hERG current change (%, negative = inhibition) at 1uM” value is 2.65%.
On to `NC(=O)C1(N2CCCCC2)CCN(CC(=O)Nc2ccc(Oc3ccccc3)cc2)CC1`, for which the “hERG current change (%, negative = inhibition) at 1uM” value is on record as -35.5%.
On to `CN(C)c1cccc(C(=O)Nc2cc(C(F)(F)F)ccc2-n2cnc3ccccc32)c1`, for which the “hERG current change (%, negative = inhibition) at 1uM” value is 2.72%.
Regarding `Cc1ccccc1C(=O)NCCCNC(=O)c1cnccn1`, the “hERG current change (%, negative = inhibition) at 1uM” value is on record as 19.3%.
Regarding `CCc1c(C)sc(NC(=S)Nc2nc(C)cc(C)n2)c1C(=O)OC`, the “hERG current change (%, negative = inhibition) at 1uM” value was found to be 16.4%.
To `CCCCCCCCOC(=O)CCc1c(C)[nH]c(=S)[nH]c1=O` belongs 8.34%; to `CC(C)(C)OC(=O)N1Cc2cc3ccccc3nc2C1CO` (centres unmarked), 9.55%.
As to `O=C(Nc1ccccc1Oc1ccsc1C(=O)O)c1ccccc1F`, the “hERG current change (%, negative = inhibition) at 1uM” value is given as 13.3%.
In the case of `CN(C(=O)COC(=O)/C=C/c1ccc(C(F)(F)F)cc1)C1CCS(=O)(=O)C1` (centres unmarked), the “hERG current change (%, negative = inhibition) at 1uM” value came to 5.59%.
Turning to `CC(C)CN(C(=O)CSc1nncs1)c1c(N)n(CC(C)C)c(=O)[nH]c1=O`, the “hERG current change (%, negative = inhibition) at 1uM” value turned out to be 12.4%.
In the case of `COc1ccc2[nH]c(=O)c(CN(C(C)=O)c3ccc(C)cc3C)cc2c1`, the “hERG current change (%, negative = inhibition) at 1uM” value is recorded as 11.8%.
For the molecule `O=C(O)CCCn1cc(NC(=O)COc2ccc(F)cc2F)cn1`, the “hERG current change (%, negative = inhibition) at 1uM” value was 23.6%.
As for `O=[N+]([O-])c1ccc(N2CCCCC2)cc1NCCOc1ccccc1`, the “hERG current change (%, negative = inhibition) at 1uM” value was 7.4%.
To `C=CCSc1nnc(N2C(=O)C(O)=C(C(=O)c3ccco3)C2c2ccc(F)cc2)s1` (centres unmarked) belongs 9.13%; to `N#Cc1nc(COc2ccc(-c3ccccc3)cc2)oc1NCCCN1CCOCC1`, 0.683%.
Regarding `O=C(COC(=O)C1c2ccccc2Oc2ccccc21)NC1CCS(=O)(=O)C1` (centres unmarked), the “hERG current change (%, negative = inhibition) at 1uM” value came out at 12.9%.
In the case of `CCCCC(=O)Nc1ccc(C(=O)OC2CCCCC2)cc1`, the “hERG current change (%, negative = inhibition) at 1uM” value came to 11.8%.
Turning to `COc1ccc(OC)c(CC(=O)N2CCc3cc(OC)c(OC)cc3C2)c1`, the “hERG current change (%, negative = inhibition) at 1uM” value is on record as 10.6%.
Turning to `COC(=O)c1ccc([C@@H]2C[C@H]3CN(Cc4cccnc4)C(=O)[C@]34CCCN24)cc1`, the “hERG current change (%, negative = inhibition) at 1uM” value came out at 14.3%.
On to `C/C(=N/N=C(\C)c1ccccc1O)c1ccccc1O`, for which the “hERG current change (%, negative = inhibition) at 1uM” value was determined as 29.3%.
To `CCOc1cc(-c2cc(-c3ccc(N)cc3)nc(N)c2C#N)ccc1O` belongs 9.57%.
Turning to `Cc1nc(SC(C)C(=O)NC2CCCC2)c2ccccc2n1` (centres unmarked), the “hERG current change (%, negative = inhibition) at 1uM” value stood at 12.4%.
`Cc1c(NC(=O)C2(c3ccccc3)CCOCC2)c(=O)n(-c2ccccc2)n1C`: the “hERG current change (%, negative = inhibition) at 1uM” value amounted to 3.79%.
Turning to `Cc1c(C(=O)N(C)CCC#N)oc2ccc(S(=O)(=O)N3CCOCC3)cc12`, the “hERG current change (%, negative = inhibition) at 1uM” value was 18.9%.
Take `CC(NC(=O)c1ccc(NS(C)(=O)=O)cc1)c1ccccc1` (centres unmarked): the “hERG current change (%, negative = inhibition) at 1uM” value is on record as -7.06%.
For the molecule `Cc1noc(C)c1S(=O)(=O)N1CCCC1C(=O)O` (centres unmarked), the “hERG current change (%, negative = inhibition) at 1uM” value was found to be 15%.
Turning to `COC(=O)c1ccccc1NC1=C/C(=N\S(=O)(=O)c2cccs2)c2ccccc2C1=O`, the “hERG current change (%, negative = inhibition) at 1uM” value is recorded as -3.55%.
The same measure for `Cc1cc([N+](=O)[O-])nn1CC(=O)Nc1cc(F)ccc1F`: -4.5%; for `CCCOC(=O)NC1C(NC(=O)OCCC)N(C)C(=O)N1C` (centres unmarked): 11.4%.
With `CC(C)c1csc(CN2CCC(CO)(Cc3cccc(F)c3)CC2)n1`, the “hERG current change (%, negative = inhibition) at 1uM” value is -0.252%.
Regarding `O=C(O)C1CCN(C(=O)CCN2C(=O)S/C(=C\c3ccccc3)C2=O)CC1`, the “hERG current change (%, negative = inhibition) at 1uM” value turned out to be 30.9%.
To `CCOC(=O)C1=C(C)NC(C)=C(C(=O)OCC)C1c1cn(-c2ccccc2)nc1-c1ccco1` belongs 1.55%; to `CCCCC(CC)CNCC(O)c1ccccc1` (centres unmarked), 9.48%.
Take `CCN(CC(=O)Nc1c(F)cccc1F)C(=O)c1cc(S(=O)(=O)N2CCOCC2)ccc1N1CCCC1`: the “hERG current change (%, negative = inhibition) at 1uM” value is 6.27%.
To `O=C(NCCCn1ccnc1)C(=O)NCc1ccc(Cl)cc1` belongs -11.7%.
